Experimental data reported in PubChem BioAssay AID1963576 (National Center for Advancing Translational Sciences (NCATS), 2024).
Among all 46,000 compounds or so, about 60 (0.1%) were called active. About 3% were inconclusive and are not listed. The call rests on the fitted dose curve; in most records, active means well fitted inhibition curve with a large enough effect; inconclusive means small, poorly fitted or top-dose-only effect; inactive means no such curve, though single readings can be large or run the other way. The list shows a part of the results.

assay: Primary qHTS assay for Inhibitors of ovarian cancer metastasis using an organotypic tumor microenvironment (TME) model.; further: nearly all actives have a fitted effect of over 65% in size;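 on activity change, negative = inhibition: plate controls were DMSO wells for no effect and tomatine positive control wells for full effect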; conditions: SKOV3ip1-GFP adhesion/invasion on 3D omental model, fluorescence; series mostly up to 45.8 µM; activity change, negative = inhibition: at the top concentration
Procedure, shortened: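 Primary human omental fibroblast/mesothelial 3D culture pre-formed 48 h. SKOV3ip1-GFP cells added with compounds (0.36-46 umol/L), incubated 2 h RT/16 h 37 C, fixed; GFP cells quantified at 488/509 nm.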

Activity change, negative = inhibition, inactive:
CCN(C(=O)c1sc2nc3n(c(=O)c2c1C)CCCCC3)c1ccccc1F -0.524%
CCCCc1ccc(NC(=O)Cn2cnc3c2c(=O)n(C)c(=O)n3C)cc1 -8.76%
COc1ccc(-n2cc3c(c2-c2cccc(Br)c2)c(=O)n(C)c(=O)n3C)cc1OC 9.42%
COC(=O)c1ccccc1NC(=O)c1nc(SCc2ccccc2C)ncc1Cl 1.75%
COc1ccccc1NC(=O)CN1C(=O)C(c2ccc(F)cc2)=NC1(C)C 10.6%
Oc1ccccc1-c1nc(/C=C/c2ccc(F)cc2)no1 7.31%
Cc1ccccc1NC(=O)Nc1nnc(N(C)Cc2ccccc2)s1 -4.64%
Cc1cccc(N2CCN(C(=O)Nc3ccc(F)cc3)CC2C)c1 (stereo not given) 10.2%
CCCCCSc1nnc2c(n1)OC(c1ccc(C)s1)N(C(C)=O)c1ccccc1-2 (stereo not given) -5.87%
Cc1ccc(Cn2cc(CCC(=O)NC3CCCCC3)c3ccccc32)cc1 -8.5%
Cc1cc(=O)[nH]c2nnc(SCc3cccc(F)c3)n12 0.415%
O=c1c2oc3ccccc3c2n(Cc2ccccc2F)c(=O)n1Cc1ccco1 2.22%
Cc1c(CNCCCc2ccccc2)c(C(=O)O)c(C)n1Cc1ccc(Cl)cc1 1.63%
Cc1ccc(N2CCN(C(=O)c3nn(C)c4c3CS(=O)(=O)c3ccccc3-4)CC2C)cc1 (stereo not given) 2.08%
CCOc1ccc(-c2ccc(NS(=O)(=O)c3cc(C)ccc3OC)cc2)nn1 1.61%
CCS(=O)(=O)c1c(Nc2ccc(F)c(Cl)c2)sc(C(=O)c2ccccc2)c1N -9.1%
Cc1[nH]c2ccccc2c1CCNCc1ccc(C=CC(=O)NO)cc1 17.4%
CC1CCN(S(=O)(=O)c2ccc3c(c2)N(CC(=O)Nc2ccc(F)c(Cl)c2)C(=O)CO3)CC1 -4.46%
COc1ccc(-c2nc3ccc(C(=O)NCc4ccc(C)cc4)cc3nc2-c2ccc(OC)cc2)cc1 11.3%
Cc1cc(=O)[nH]c(SCC(=O)N2CCN(c3ccccc3)CC2)n1 12.2%
COc1ccc(Cl)cc1-n1c(CCC(=O)O)ccc1-c1ccc(C)cc1 -12%
O=C(CC1N=C2c3ccccc3N=C(SCc3ccccc3Cl)N2C1=O)NC1CCCCC1 (stereo not given) 7.58%
Cc1ccc(OCCn2c(COc3ccc(Cl)cc3)nc3ccccc32)cc1 0.713%
CCOC(=O)c1sc(NC(=O)c2nc3nc(C)cc(C(F)F)n3n2)c(C(=O)OC)c1C 8.13%
CC1CCN(C(=O)c2ccc(NC(=O)c3nsc4ccccc34)cc2)CC1 -9.09%
CCc1ccccc1NC(=O)Cn1c(=O)ccc2cc(S(=O)(=O)N3CCC(C)CC3)ccc21 -0.358%
Cc1cccc(N2CCN(S(=O)(=O)c3c(C)nc4scc(C)n4c3=O)CC2C)c1 (stereo not given) -18.6%
COc1ccc(N2C(=O)CCSC23C(=O)N(Cc2ccc(F)cc2)c2ccccc23)cc1Cl (stereo not given) 2.86%
COc1cccc(NC(=O)N2CCC(CN3CCOCC3)CC2)c1 4.69%
CCC(C)NC(=O)Cn1cnc2sc(C)c(S(=O)(=O)N3CCN(c4ccccc4OC)CC3)c2c1=O (stereo not given) -9.76%
Cn1nc(C(=O)Nc2ccccc2C#N)c2c1-c1ccccc1SC2 5.97%
Cc1ccc(NC(=O)CN2C(=O)C(C)(C)c3cc(S(=O)(=O)N4CCCCC4)ccc32)c(Br)c1 8.61%
COc1cccc(-c2cc(C(=O)Nc3cccnc3Cl)no2)c1 -0.4%
CCOc1cccc(C2c3c(oc4cc(C)c(C)cc4c3=O)C(=O)N2c2nc(C)c(C)s2)c1 (stereo not given) 4.69%
O=C(NC1CC(=O)N(c2ccc(Cl)cc2)C1)C1CCCCC1 (stereo not given) 8.1%
CCOc1ccc(NC(=O)CSc2nc3ccccc3c(=O)n2CCC(=O)NC2CCCCC2)cc1 0.987%
COc1ccc(NC(=O)CN(C)S(=O)(=O)c2cnc[nH]2)cc1 6.83%
COc1cc(C(=O)NCCSc2c(C)[nH]c3ccccc23)cc(OC)c1OC -9.05%
O=C(COC(=O)c1cc(-c2cccs2)nc2ccccc12)c1ccc(Cl)cc1 0.232%
CCc1ccccc1NC(=O)[C@H](Cc1ccccc1)N1Cc2ccccc2C1=O 8%
COC(=O)c1c(NC(=O)/C(C#N)=C/c2ccc(OC)cc2)sc2c1C(C(=O)OC)CC2 (stereo not given) 0.342%
COc1ccc(-c2noc(C3CC(=O)N(c4ccc5c(c4)OCCO5)C3)n2)c(OC)c1 (stereo not given) -2.38%
CC(=O)c1cc2c(cc1N/C(=N/S(=O)(=O)c1ccc(C)cc1)c1ccc(Cl)cc1)OCO2 -27.9%
CCOc1ccc(NC(=O)c2oc3ccccc3c2NC(=O)C(C)Oc2ccccc2)cc1 (stereo not given) -12.6%
CC(C)Cn1c(SCc2cccc(F)c2)nc2ccsc2c1=O -9.56%
Cc1ccc(C)c(CN2C(=O)c3ccccc3S(=O)(=O)c3ccc(C(=O)N4CCN(Cc5ccccc5)CC4)cc32)c1 3.58%
Cc1cccc(C)c1NC(=O)CSc1nccn1C 0.146%
CC(NC(=O)c1c(O)nc2ccccn2c1=O)c1ccccc1 (stereo not given) -14.2%
CCOc1ccccc1N1CC(c2nc3ccccc3n2CCCCOc2ccccc2)CC1=O (stereo not given) -10.7%
CCOCCCn1c(SCC(=O)Nc2ccccc2OC)nc2c(oc3ccccc32)c1=O 44.3%
COc1ccccc1C1=Nn2c(nc3sc(C(=O)Nc4ccccc4Cl)c(C)c3c2=O)SC1 4.48%
CCN(C(=O)CCS(=O)(=O)c1cc(Br)cc2c1N(C(=O)C1CC1)CC2)c1cccc(C)c1 14.5%
COc1ccc(-c2cn3c(n2)sc2cc(C(=O)NCc4ccccc4)ccc23)cc1 6.73%
Cc1c(C(=O)N(C)C)sc2c1c(=O)n(-c1ccc(F)cc1)c(=O)n2Cc1cc(=O)n2ccccc2n1 1.92%
COc1cccc(CNC(=O)C2Cc3cc(S(=O)(=O)N4CCCCCC4)ccc3N2C(C)=O)c1 (stereo not given) 9.02%
COc1ccc(CC(=O)NCc2ccc3c(c2)CCN3C(C)=O)cc1OC -1.48%
CCN(CC)S(=O)(=O)c1ccc2c(c1)c(=O)c(C(=O)NCc1ccc(Cl)cc1)cn2C 9.88%
CCc1cc2c(cc3c(=O)n(CC(=O)N4CCC(C)CC4)nc(CC)n32)s1 -9.55%
Cn1nc(C(=O)N2CCN(c3cccc(Cl)c3)CC2)c2c1-c1ccccc1S(=O)(=O)C2 2.57%
Cc1nc2c(-c3ccccc3)c(C)nn2c(C)c1CCC(=O)N1CCN(c2ccccc2)CC1 4.35%
CCC(=O)N1CCc2cc(Br)cc(S(=O)(=O)N3CCCC(C(=O)NCc4cccc(OC)c4)C3)c21 (stereo not given) 11%
CC(=O)N1CCCc2ccc(NS(=O)(=O)c3ccc(C)c(C)c3)cc21 -1.54%
O=C1CCc2cc(S(=O)(=O)NCc3ccc(F)cc3)cc3c2N1CC3 23%
Cc1ccc(Cc2nc3ccccc3nc2SCC(=O)N2CCN(c3ccccc3F)CC2)cc1 8.64%
CCCCOc1ccc(C(=O)NCC2(N3CCN(C)CC3)CCCCC2)cc1 8.57%
O=C(Nc1nnc(S(=O)(=O)N2CCOCC2)s1)c1cccc(F)c1 18.5%
CCc1ccc(-n2c(=O)c3ccc(C(=O)NCCc4ccccc4)cc3n(CC(N)=O)c2=O)cc1 -18.2%
COc1ccc(OC)c(NC(=O)c2cn3c4c(ccc(Cl)c4c2=O)OC(C)C3)c1 (stereo not given) 4.5%
COc1ccc(Cn2cc(C(=O)c3ccc(OC)cc3)c(=O)c3cc4c(cc32)OCCO4)cc1 4.97%
CC(=O)c1cccc(NC(=O)C(Cc2ccccc2)NS(=O)(=O)c2ccc(Br)s2)c1 (stereo not given) -2.41%
Cc1c2cnn(-c3ccccc3)c(=O)c2c(C)n1CC(=O)NCc1ccccc1Br -3.37%

outcome, inactive:
COc1ccc(-c2cc(C(F)(F)F)nc(SCC(=O)NCc3ccc(F)cc3)n2)cc1
COc1cccc(NC(=O)Cn2c(=O)n(Cc3ccccc3)c(=O)c3c4c(sc32)CN(C(C)=O)CC4)c1
Cc1c(Cl)cccc1N1CC(c2nc3ccccc3n2Cc2ccccc2F)CC1=O (stereo not given)
COc1ccc(S(=O)(=O)NC2(C(F)(F)F)NC(=O)N(CCc3ccccc3)C2=O)cc1 (stereo not given)
Cc1cccc(NC(=O)Cn2c(=O)n(Cc3ccc4c(c3)OCO4)c(=O)c3ccccc32)c1
Cc1nn(CC(=O)N2CCN(c3ccccc3)CC2)c(=O)c2cc3sccc3n12
CCC(=O)N1CCc2cc(CNS(=O)(=O)c3cc(Cl)ccc3OC)ccc21
COc1ccc(Br)cc1CNC(=O)CCSCc1ccc(Cl)cc1
Cc1ccc(CCNC(=O)CN2N=C(c3ccc(C)cc3)CCC2=O)cc1
Cc1c(C(=O)Nc2cccc(Cl)c2)oc2ccc(S(=O)(=O)N3CCOCC3)cc12
CCOc1ccc(Nc2oc(/C=C/c3cc(OC)c(OC)c(OC)c3)nc2C#N)cc1
COc1ccc(CCNC(=O)CSc2cn(CCNC(=O)c3ccc(OC)c(OC)c3)c3ccccc23)cc1OC
O=C(O)CSc1nc2ccccc2nc1N1CCCCC1
COc1cccc(NS(=O)(=O)c2cc(-c3cnc(C4CC4)o3)ccc2C)c1
Cc1ccc2c(=O)cc(C(=O)Nc3ccc(S(=O)(=O)N4CCCC(C)C4)cc3)oc2c1C (stereo not given)
COc1ccc(C2c3cc(OC)c(OC)cc3CC(=O)N2c2cccc(C#N)c2)cc1 (stereo not given)
Cc1ccc(C)c(C(=O)N2CCC(c3nc4c(nnn4Cc4ccccc4)c(=O)[nH]3)CC2)c1
CC1Cc2cc(S(=O)(=O)CCC(=O)Nc3ccc(OC(F)(F)F)cc3)ccc2N1C(=O)C1CC1 (stereo not given)
COc1ccc(Cc2nc3ccc(C(=O)NCCc4ccc(Cl)cc4)cc3o2)cc1
COc1ccc(OC)c(C2CC(=O)Nc3ccc4ccccc4c32)c1 (stereo not given)
CCOC(=O)C1CCN(C(=O)c2ccc3c(c2)sc2nc(-c4ccccc4)cn23)CC1
COc1ccc(C(=O)COC(=O)c2cc(-c3ccccc3)nc3c(C)cccc23)cc1
CCS(=O)(=O)N1CCc2cc(C(=O)Nc3ccc(C)c(Cl)c3)ccc21
O=C(Nc1ccc(Cl)cc1)N1CCC(CN2CCCC2)CC1
